From the BET-seq Pho4 binding data (Le et al. 2018)
The list shows a part of the results. The energies were worked out here from pooled read counts, against the library average; single values are noisy.

target: T1, Pho4 (S. cerevisiae) (UniProt P07270); test: relative binding free energy (BET-seq); higher = weaker binding; settings: reference: library average
T1 sequence: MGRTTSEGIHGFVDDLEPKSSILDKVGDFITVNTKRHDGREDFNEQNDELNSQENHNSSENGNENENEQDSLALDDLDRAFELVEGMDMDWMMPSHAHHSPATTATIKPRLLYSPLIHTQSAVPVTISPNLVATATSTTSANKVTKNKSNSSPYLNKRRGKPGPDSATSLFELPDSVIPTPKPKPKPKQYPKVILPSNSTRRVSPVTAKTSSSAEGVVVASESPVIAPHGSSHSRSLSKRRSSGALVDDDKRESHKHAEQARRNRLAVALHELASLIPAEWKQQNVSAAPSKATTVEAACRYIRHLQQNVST

| Sequence | relative binding free energy |
| --- | --- |
| GGTAGCACGTGTTTTT | 0.251 kJ/mol |
| TCTATCACGTGTGGGT | 0.753 kJ/mol |
| CTGGTCACGTGGGGCT | 0.293 kJ/mol |
| ATAGGCACGTGAATAG | 0.209 kJ/mol |
| TGTATCACGTGAGGGT | 1.09 kJ/mol |
| TCGTGCACGTGGGGGA | -0.753 kJ/mol |
| CGGTGCACGTGGCGGT | 0 kJ/mol |
| GATGGCACGTGATTTA | 0.377 kJ/mol |
| GATGGCACGTGGGCTA | -0.293 kJ/mol |
| TGTTCCACGTGAAGGG | 1.21 kJ/mol |
| GGGGACACGTGTGTCT | 0.126 kJ/mol |
| TTGAGCACGTGGGTTG | -0.711 kJ/mol |
| TTATCCACGTGGTGGC | 0.0418 kJ/mol |
| AGGGGCACGTGGGCAT | -1.09 kJ/mol |
| ATTGACACGTGTGATA | 0.0837 kJ/mol |
| GTTCTCACGTGTTTTA | 1.63 kJ/mol |
| GGTGTCACGTGGTTTG | 0.753 kJ/mol |
| CTGTACACGTGGAGTT | 0.335 kJ/mol |
| GAGGACACGTGATTGT | 0.628 kJ/mol |
| GATGGCACGTGAGGTT | 1.13 kJ/mol |
| ATGTGCACGTGTTAAG | 0.126 kJ/mol |
| ATTTGCACGTGTTCCT | 0.335 kJ/mol |
| TGCGGCACGTGGATGC | -0.293 kJ/mol |

| Sequence | relative binding free energy |
| --- | --- |
| GTTCGCACGTGTAGTG | -0.126 kJ/mol |
| GGTAACACGTGCGGTC | 0.46 kJ/mol |
| GGAGGCACGTGAGATT | 0.628 kJ/mol |
| TTATACACGTGGTTGT | 0.0418 kJ/mol |
| TGGCTCACGTGGAGAA | 0.669 kJ/mol |
| GTTTGCACGTGGTTGT | 0.46 kJ/mol |
| GTTTCCACGTGGAATG | 1.17 kJ/mol |
| GCGTACACGTGATTTG | 1.34 kJ/mol |
| TATATCACGTGTGTAC | 0.544 kJ/mol |
| TGTAGCACGTGAGTTT | 0.669 kJ/mol |
| GTTTACACGTGGCTGG | 0.377 kJ/mol |
| AAGCGCACGTGATTGG | 0.0837 kJ/mol |
| TTCAACACGTGGTGGG | -0.126 kJ/mol |
| TGCGGCACGTGTGATT | 0.0837 kJ/mol |
| TAGATCACGTGGGTTT | 0 kJ/mol |
| TTAGGCACGTGTCGGC | -0.586 kJ/mol |
| TGGTTCACGTGGTGTA | 1.09 kJ/mol |
| GATGCCACGTGTGGGC | 0.418 kJ/mol |
| AATGTCACGTGAGTAT | 0.962 kJ/mol |
| GGCAACACGTGTGGGA | 0.711 kJ/mol |
| GTCTACACGTGTGGTG | 1.09 kJ/mol |
| TTTAGCACGTGGTCAA | -0.711 kJ/mol |
| ATGTACACGTGGGAGC | -0.167 kJ/mol |

| Sequence | relative binding free energy |
| --- | --- |
| ATTAACACGTGCTGGT | -0.544 kJ/mol |
| TTTGGCACGTGTTTGT | -0.126 kJ/mol |
| GGAGTCACGTGCGGAA | 0.628 kJ/mol |
| GTCGTCACGTGGGTCT | -0.0837 kJ/mol |
| TATGCCACGTGGATGG | -0.502 kJ/mol |
| TCTGGCACGTGTCTGT | -0.126 kJ/mol |
| AATTTCACGTGCTTTG | 0.753 kJ/mol |
| TGCTGCACGTGGGCAA | -0.753 kJ/mol |
| AATCTCACGTGTTTGG | 0.879 kJ/mol |
| AGTAACACGTGGTTAA | -0.251 kJ/mol |
| TTCGTCACGTGAGGTT | 1.51 kJ/mol |
| ATCAGCACGTGGAAGG | 0.0418 kJ/mol |
| TGTGGCACGTGGTGCA | -0.753 kJ/mol |
| TCTTTCACGTGGGTTC | 1.21 kJ/mol |
| GGGACCACGTGATTGG | 0.251 kJ/mol |
| GGAGGCACGTGAAGAT | 0.711 kJ/mol |
| TGAATCACGTGCGGTA | 0.628 kJ/mol |
| TAAGCCACGTGTTTGG | -0.502 kJ/mol |
| GATTGCACGTGTATTG | -0.251 kJ/mol |
| TGGAACACGTGTAAGT | 0.377 kJ/mol |
| GTAAACACGTGTTATT | 0.126 kJ/mol |
| TGTTGCACGTGGGTAG | -0.628 kJ/mol |
| TGCTACACGTGTGTAT | 0.669 kJ/mol |

| Sequence | relative binding free energy |
| --- | --- |
| TGTAACACGTGTAGGC | -0.0837 kJ/mol |
| TGGGTCACGTGTATTC | -0.0418 kJ/mol |
| TTTTACACGTGGATGA | 0.418 kJ/mol |
| AGGGTCACGTGTAGCG | 0.502 kJ/mol |
| ATGCACACGTGGGGGT | -0.126 kJ/mol |
| GGTGGCACGTGGAGAA | -0.628 kJ/mol |
| GGTTTCACGTGTACTA | 1.55 kJ/mol |
| TAGTTCACGTGTTCGT | 1.42 kJ/mol |
| GGCTTCACGTGGATGT | 1.13 kJ/mol |
| TGGTACACGTGGTGCC | -0.377 kJ/mol |
| TGGTGCACGTGAATTC | 0.544 kJ/mol |
| CTTTTCACGTGCGTGC | 1.46 kJ/mol |
| AGTTGCACGTGAATAG | 0.711 kJ/mol |
| GGGATCACGTGAGGTA | 1.46 kJ/mol |
| CATGTCACGTGGTAGG | -0.0418 kJ/mol |
| CTGTGCACGTGGTCAG | -0.502 kJ/mol |
| CGGGCCACGTGGTGAG | -0.795 kJ/mol |
| TTAGTCACGTGGTTCC | 0.46 kJ/mol |
| GGAGGCACGTGAGTGG | 0.669 kJ/mol |
| CTGCGCACGTGTGGTT | -0.335 kJ/mol |
| TAATACACGTGATGTG | 0.753 kJ/mol |
| AGGCTCACGTGCGGTG | 0.628 kJ/mol |
| AAGGGCACGTGAGACG | 0.753 kJ/mol |

| Sequence | relative binding free energy |
| --- | --- |
| AGGTGCACGTGTAAAA | 0.628 kJ/mol |
| GGGTGCACGTGAATCT | 1.51 kJ/mol |
| GGCTTCACGTGGTCTG | 0.418 kJ/mol |
| TTTCACACGTGTTGTT | 0.46 kJ/mol |
| TGTGTCACGTGTTTGT | 0.46 kJ/mol |
| ATGATCACGTGTTTTT | 0.962 kJ/mol |
| AAGGACACGTGTGTGC | -0.0837 kJ/mol |
| TTTGCCACGTGCCTGG | 0 kJ/mol |
| ATGGCCACGTGTAAGG | 0.544 kJ/mol |
| GAGTGCACGTGTAAAG | 1 kJ/mol |
| GGGTACACGTGTAGAA | 0.586 kJ/mol |
| CTCTGCACGTGTGGGT | 0.251 kJ/mol |
| TGGTGCACGTGCTTTA | -0.126 kJ/mol |
| TGTATCACGTGATCGG | 0.837 kJ/mol |
| TTAAACACGTGGGGAT | -0.293 kJ/mol |
| CTGCGCACGTGATGTG | -0.167 kJ/mol |
| AGCTTCACGTGCGTGG | 1.05 kJ/mol |
| TAGGTCACGTGGCATT | 0.0837 kJ/mol |
| CAGGTCACGTGTGAGT | 0.502 kJ/mol |
| TTTGGCACGTGATGCT | -0.209 kJ/mol |
| AGTGACACGTGTTCGT | 0.0418 kJ/mol |
| ATGATCACGTGAGGTT | 1.3 kJ/mol |
| GGTGCCACGTGTATGT | -0.335 kJ/mol |
